Results: ChEMBL document CHEMBL5331106, “Investigation into the Mechanism of Action of the Tuberculosis Drug Candidate SQ109 and Its Metabolites and Analogues in Mycobacteria” (J Med Chem, 2023)

System: Mycobacterium tuberculosis
Experiment: Rescue fold, ratio of IC50 for antimycobacterial activity against Mycobacterium tuberculosis HN878 in presence of 50 uM undecaprenyl phosphate to IC50 for antimycobacterial activity against Mycobacterium tuberculosis HN878

Structure (SMILES)	Ratio IC50
CC(C)CCCC(C)CCNCCNC1C2CC3CC(C2)CC1C3 (stereo not drawn)	9.4
CC(C)=CCC/C(C)=C/CNCCOC1C2CC3CC(C2)CC1C3 (stereo not drawn)	8.2
CC(C)=CCC/C(C)=C/COCCNC1C2CC3CC(C2)CC1C3 (stereo not drawn)	2.1
CC(C)=CCC/C(C)=C/CCNCCNC1C2CC3CC(C2)CC1C3 (stereo not drawn)	9.7
CC(C)=CCC/C(C)=C/C(C)(C)NCCNC1C2CC3CC(C2)CC1C3 (stereo not drawn)	14
CC(C)=CCC/C(C)=C/CCNCCNC1C2CC3CC1CC(F)(C3)C2 (stereo not drawn)	5.9
CCCCCCCCCCCNCCNC1C2CC3CC(C2)CC1C3 (stereo not drawn)	13
CC(C)=CCC/C(C)=C/CNCCNC1C2CC3CC(C2)CC1C3 (stereo not drawn) [SQ109]	15
